Test results taken from PubChem BioAssay AID485294 (National Center for Advancing Translational Sciences (NCATS), 2010).
In all, about 370,000 compounds went through this assay and about 150 (0.041%) were called active. Inconclusive means that the source gave no clear call. Such entries were picked first, then a sample of the others. Calls follow the shape of the dose curve; as a rule, active = well fitted inhibition curve with a large enough effect; inconclusive = small, poorly fitted or top-dose-only effect; inactive = flat fitted curve, though single readings scatter. Potencies of inconclusive entries are left out as doubtful fits.
Also: nearly all actives have a fitted effect of over 25% in size.
Potency is read from the fitted curve at half-maximal effect; tags tell the direction and shape of the fitted curve.

The compounds below were run against Beta-lactamase (Escherichia coli (strain K12)) (UniProt P00811) (assay: qHTS Inhibitors of AmpC Beta-Lactamase (assay with detergent)). Details: AmpC hydrolysis of nitrocefin, absorbance 480 nm, 0.01% Triton; series mostly up to 114 µM.
UniProt P00811, sequence (P00811 whole entry, looked up): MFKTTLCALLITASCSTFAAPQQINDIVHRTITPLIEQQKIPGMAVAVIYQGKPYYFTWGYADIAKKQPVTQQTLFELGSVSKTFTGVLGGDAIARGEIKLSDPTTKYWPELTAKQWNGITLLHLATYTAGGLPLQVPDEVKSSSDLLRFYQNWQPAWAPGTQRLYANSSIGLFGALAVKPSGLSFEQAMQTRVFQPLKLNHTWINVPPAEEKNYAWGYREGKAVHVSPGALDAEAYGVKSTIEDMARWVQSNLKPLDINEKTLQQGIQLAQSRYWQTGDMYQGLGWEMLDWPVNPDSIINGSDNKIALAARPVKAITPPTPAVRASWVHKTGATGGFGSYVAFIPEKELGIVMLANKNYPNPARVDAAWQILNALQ
Outline: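 AmpC (5.3 nM in the dispensed reagent) in 20 mM phosphate pH 7.0 with 0.01% (detergent screen) or 0.0001% Triton X-100 was preincubated with compounds for 15 min at room temperature. Nitrocefin was then added from an 800 uM solution, and hydrolysis was followed at 480 nm.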
In the case of CCCOc1ccccc1C1C(C(=O)OC)=CN(C(C)C)C=C1C(=O)OC, the Potency is reported as inconclusive [inhibitor, full curve, poor fit].
With COc1ccc(N2CCN(C(=O)CSc3nnc(-c4cccnc4)n3-c3ccc(F)cc3)CC2)cc1 the Potency was inconclusive [inhibitor, single point].
Cc1nc2c(-c3ccc(Cl)cc3)cnn2c2c1CCC2 was tested, and the Potency was inconclusive [inhibitor, full curve, poor fit].
For COc1cc(/C=N/n2c(-c3ccccc3)n[nH]c2=S)cc(OC)c1O, the Potency was “inactive”.
For Cc1ccc(NC(CC(=O)c2ccccc2)C(=O)O)cc1Cl (configuration not stated), the Potency was “inactive”.
O=C(Cn1c(=O)c(C(F)(F)F)nc2ccccc21)Nc1ccc(Br)cc1F was tested, and the Potency was “inactive”.
For COc1ccc(S(=O)(=O)N2CCN(c3ccccc3)CC2)cc1-c1noc(C)n1, the Potency was “inactive”.
In the case of Cn1c(=O)c2c(SCCN3CCOCC3)nc(C3CCCC3)nc2n(C)c1=O, the Potency is reported as inconclusive [inhibitor, full curve].
For O=C(Nc1cccc(Cl)c1)C1CCN(S(=O)(=O)Cc2ccccc2)CC1, the Potency was “inactive”.
In the case of CC(OC(=O)CCC(=O)N1CCN(S(=O)(=O)c2ccc3ccccc3c2)CC1)C(=O)NC(N)=O (configuration not stated), the Potency is reported as inconclusive [inhibitor, full curve, poor fit].
CC(=O)Nc1ccccc1NC(=O)C/C(C)=N/NC(=O)c1ccncc1 was tested, and the Potency was inconclusive [inhibitor, single point].
With NC(=O)N=Nc1c(O)[nH]c2c(Br)cc(Br)cc12 the Potency was inconclusive [inhibitor, full curve, poor fit].
For OC1(c2ccc(OC(F)F)cc2)CSC(=Nc2cccnc2)N1Cc1ccco1 (configuration not stated), the Potency was inconclusive [inhibitor, partial curve, poor fit].
In the case of O=C(Nc1ccc(Cl)cc1Cl)NC1CCCC1, the Potency is reported as inconclusive [inhibitor, single point].
Cc1c(Cl)c([N+](=O)[O-])nn1CCCC(=O)NCCc1ccccc1 was tested, and the Potency was “inactive”.
O=C(CSc1nc(-c2ccc(F)cc2)cc(C(F)(F)F)n1)NCc1cccs1 was tested, and the Potency was “inactive”.
With Cc1ccc(CNC(=O)CCc2c(C)nc3c4c(C)cc(C)nc4nn3c2C)cc1 the Potency was “inactive”.
CCCc1cc(=O)oc2cc(C)cc(OC(C)C(=O)NCc3ccccn3)c12 (configuration not stated) was tested, and the Potency was “inactive”.
Cc1cc(OC(C)C(=O)NC(Cc2c[nH]c3ccc(O)cc23)C(=O)O)c2c(C)c(C)c(=O)oc2c1 (configuration not stated) was tested, and the Potency was inconclusive [inhibitor, single point].
For Cc1cc(C)nc(Oc2ccc(Br)cc2)n1, the Potency was “inactive”.
With COC(=O)CN1C2(C#N)CCCCC2CC2CCCCC21C#N (configuration not stated) the Potency was inconclusive [inhibitor, full curve, poor fit].
In the case of CC(=O)Nc1nc(CC(=O)c2ccccc2)cs1, the Potency is reported as inconclusive [inhibitor, full curve, poor fit].
With COc1cccc([C@@H]2Oc3ccc(OC)cc3C(=O)[C@H]2O)c1 the Potency was inconclusive [inhibitor, full curve, poor fit].
In the case of CC1=C(C(=O)NCc2ccc(Cl)cc2)C2(CCC(C)CC2)OC1=O (configuration not stated), the Potency is reported as “inactive”.
With Cc1cc(NC(=O)CSc2nc3ccccc3c(=O)n2C(C)c2ccccc2)no1 (configuration not stated) the Potency was “inactive”.
COC(=O)c1ccc(CNC(=O)CCNC(=O)c2ccco2)cc1 was tested, and the Potency was “inactive”.
In the case of CN(C(N)=S)c1ccccc1, the Potency is reported as inconclusive [inhibitor, partial curve].
In the case of Nc1cccc(C(=O)Nc2ccc3nc(-c4cccnc4)[nH]c3c2)c1, the Potency is reported as inconclusive [inhibitor, full curve, poor fit].
In the case of COc1cc(/C=N/NC(=O)Cc2ccc(Br)cc2)cc(OC)c1O, the Potency is reported as “inactive”.
In the case of O=C(/C=C/c1cccc([N+](=O)[O-])c1)N1CCN(Cc2ccc3c(c2)OCO3)CC1, the Potency is reported as inconclusive [inhibitor, full curve].
With CCN1C(=O)[C@H]2[C@@H](c3ccc(C)cc3)N3C(=O)N(c4ccc(OC)cc4)C(=O)[C@@]3(C)[C@H]2C1=O the Potency was inconclusive [inhibitor, full curve, poor fit].
CC/C(=N\Nc1cccc2ccccc12)c1c(O)[nH]c(=O)[nH]c1=O was tested, and the Potency was inconclusive [inhibitor, partial curve].
In the case of Cc1cccc(CN2CCN(CC(=O)Nc3c(C)cccc3C)S2(=O)=O)c1, the Potency is reported as “inactive”.
With CC1CN(S(=O)(=O)c2ccc(C(=O)Nc3nc(-c4cc5ccccc5o4)cs3)cc2)CC(C)O1 (configuration not stated) the Potency was “inactive”.
Cc1cccc(C(=O)Nc2ccc(N3CCC(N4CCCCC4)CC3)c(C(=O)O)c2)c1 was tested, and the Potency was “inactive”.
For CN1CC(c2ccccn2)C2(SC(=S)N(Cc3ccccc3)C2=O)C12C(=O)Nc1ccccc12 (configuration not stated), the Potency was “inactive”.
In the case of COc1ccc(C2CC(=O)Oc3ccc(C(C)(C)C)cc32)cc1 (configuration not stated), the Potency is reported as inconclusive [inhibitor, partial curve, poor fit].
In the case of C=CCNC(=O)c1cc(Cl)ccn1, the Potency is reported as inconclusive [inhibitor, full curve].
In the case of COc1ccccc1/C=C1\NC(=S)N(CC2CCCO2)C1=O (configuration not stated), the Potency is reported as “inactive”.
For COc1ccc(C(=O)NC(C)C2CC3CCC2C3)cc1 (configuration not stated), the Potency was inconclusive [inhibitor, full curve, poor fit].
C[C@H](NC(N)=O)C(=O)Nc1ccc(OCc2ccccc2)cc1 was tested, and the Potency was inconclusive [inhibitor, full curve, poor fit].
For O=[N+]([O-])c1ccc(O)c(/C=N\N=C2c3ccccc3-c3ccccc32)c1, the Potency was “inactive”.
For COC(=O)CNC(=O)/C=C/c1cc(Br)ccc1OC, the Potency was “inactive”.
With O=C(OCC(=O)N1CCN(C(=O)c2ccco2)CC1)c1ccc(Cl)c(Cl)c1 the Potency was inconclusive [inhibitor, full curve, poor fit].
In the case of COc1cccc(-c2c(C(=O)N/N=C/c3cccs3)nnn2-c2nonc2N)c1, the Potency is reported as inconclusive [inhibitor, full curve, poor fit].
CCCC(C)n1[nH]c(=O)c2c1NC(=O)CSC2c1ccc(OC)c(OC)c1 (configuration not stated) was tested, and the Potency was inconclusive [inhibitor, full curve, poor fit].
For CCC1(CC)Cc2ccccc2-c2nc3ccccc3c(=O)n21, the Potency was inconclusive [inhibitor, full curve, poor fit].
With COc1cccc(-c2nnc(SCC(=O)N3CC(C)CC(C)C3)o2)c1 (configuration not stated) the Potency was inconclusive [inhibitor, full curve, poor fit].
In the case of OCCC1CN(Cc2nc3c(s2)CCCC3)CCN1CCc1ccccc1 (configuration not stated), the Potency is reported as “inactive”.
In the case of Cn1cncc1C#Cc1ccc2cc(CCO)oc(=O)c2c1, the Potency is reported as “inactive”.
In the case of CCN(CC)C(=O)c1ccc2c(c1)nnn2C, the Potency is reported as inconclusive [inhibitor, single point].
For CCOc1ccc(-n2c(=O)c3c4c(sc3n(CC(=O)NCc3ccco3)c2=O)CCC4)cc1, the Potency was “inactive”.
Cc1cc2oc3c(c(=O)c2cc1C)C(c1ccc(C(C)C)cc1)N(c1nc(C)c(C)s1)C3=O (configuration not stated) was tested, and the Potency was “inactive”.
For O=C(NC(Cc1c[nH]c2ccccc12)C(=O)Nc1ccc(F)c([N+](=O)[O-])c1)c1cccs1 (configuration not stated), the Potency was inconclusive [inhibitor, partial curve].
COc1c(OC)c(O)c2c(=O)c(O)c(-c3ccccc3)oc2c1OC was tested, and the Potency was “inactive”.
For Cc1cccc(C)c1OCc1cc(C(=O)NCC2CC2)no1, the Potency was “inactive”.
In the case of Cc1cc(SCC(=O)c2cccs2)nc2c(C)cccc12, the Potency is reported as inconclusive [inhibitor, partial curve].
With CCn1c(=O)n(CC)c2cc(S(=O)(=O)N3CCOCC3)ccc21 the Potency was inconclusive [inhibitor, full curve, poor fit].
With COCCNC(=O)COC(=O)/C=C/c1cnc2ccccc2n1 the Potency was inconclusive [inhibitor, partial curve].
With CCOC(=O)C1(C)NC(c2cccs2)C2C(=O)N(c3ccc(C)cc3)C(=O)C21 (configuration not stated) the Potency was “inactive”.
With COc1ccc(NC(=O)CSc2nc3ccc(OC)cc3[nH]2)cc1 the Potency was “inactive”.
With CN1CCc2nc3sc(C(=O)NC(C)(C)C)c(N)c3cc2C1 the Potency was inconclusive [inhibitor, partial curve, poor fit].
COc1ccc(N2C(=O)C(CC(=O)Nc3ccccc3)N(Cc3ccccn3)C2=S)cc1 (configuration not stated) was tested, and the Potency was inconclusive [inhibitor, partial curve].
In the case of COc1ccc(C)cc1NC(=S)N1CCN(c2ncccn2)CC1, the Potency is reported as inconclusive [inhibitor, full curve, poor fit].
For O=C(c1nnc(-c2ccccc2)o1)C1CC1, the Potency was inconclusive [inhibitor, full curve].
COc1cccc(/C=C/C(=O)c2ccc[nH]2)c1 was tested, and the Potency was “inactive”.
In the case of COc1cc2ccccc2cc1C(=O)Nc1ccncc1, the Potency is reported as inconclusive [inhibitor, full curve, poor fit].
For CC(=O)Nc1ccc(S(=O)(=O)N(C)c2ccccc2)cc1, the Potency was “inactive”.
For COc1ccc(OC)c2c(C)cc(N3CCCCCC3)nc12, the Potency was inconclusive [inhibitor, full curve, poor fit].
For Cc1cccn2c(=O)nc(SCC(=O)N3CCC(C)CC3)nc12, the Potency was inconclusive [inhibitor, partial curve, poor fit].
In the case of CNC(=O)c1cc(S(=O)(=O)NCc2ccncc2)ccc1OC, the Potency is reported as inconclusive [inhibitor, partial curve].
For O=C(NC1CCCCC1)c1nc2c(nnn2Cc2ccccc2Cl)c(=O)[nH]1, the Potency was inconclusive [inhibitor, single point].
